Results are given in words; binding and its absence hold for the method and conditions named. Binding seen in cells or lysates may run through a third protein. Some entries that bind do so weakly or less than the wild type. For some of these results: Sequences can lack the tags named with a protein.
Assays:
[1] = target: T1, SRK2A-cLUC (Arabidopsis thaliana) (UniProt P43291); assay: split reporter; split-luciferase complementation in infiltrated N. benthamiana leaves; nLUC and cLUC fusions transiently expressed; luciferin infiltrated, luminescence imaged
T1 sequence: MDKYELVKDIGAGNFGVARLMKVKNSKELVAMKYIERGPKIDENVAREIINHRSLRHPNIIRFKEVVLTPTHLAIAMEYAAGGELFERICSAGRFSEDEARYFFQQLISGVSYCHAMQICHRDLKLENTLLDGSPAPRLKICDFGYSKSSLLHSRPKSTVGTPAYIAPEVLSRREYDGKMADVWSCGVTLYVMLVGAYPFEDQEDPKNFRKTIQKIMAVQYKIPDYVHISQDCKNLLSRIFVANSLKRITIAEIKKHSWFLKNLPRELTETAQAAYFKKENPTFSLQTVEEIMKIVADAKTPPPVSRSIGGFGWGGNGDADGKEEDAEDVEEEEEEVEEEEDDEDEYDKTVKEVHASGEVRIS

By UniProt entry, the sequences of proteins in these tests, tags left out.
UniProt Q39026: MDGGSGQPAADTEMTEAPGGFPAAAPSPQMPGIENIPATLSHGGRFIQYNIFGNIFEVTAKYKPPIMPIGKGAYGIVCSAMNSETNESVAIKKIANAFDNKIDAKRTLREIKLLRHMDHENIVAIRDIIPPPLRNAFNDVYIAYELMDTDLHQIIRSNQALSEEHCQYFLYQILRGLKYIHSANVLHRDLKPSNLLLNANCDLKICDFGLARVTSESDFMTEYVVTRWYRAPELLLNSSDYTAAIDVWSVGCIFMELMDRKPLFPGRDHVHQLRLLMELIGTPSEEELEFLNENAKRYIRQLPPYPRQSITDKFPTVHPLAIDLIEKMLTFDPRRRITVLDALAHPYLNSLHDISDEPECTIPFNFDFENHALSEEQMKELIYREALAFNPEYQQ

[2] = target: T2, SRK2G-cLUC (Arabidopsis thaliana) (UniProt P43292); assay: as above
T2 sequence: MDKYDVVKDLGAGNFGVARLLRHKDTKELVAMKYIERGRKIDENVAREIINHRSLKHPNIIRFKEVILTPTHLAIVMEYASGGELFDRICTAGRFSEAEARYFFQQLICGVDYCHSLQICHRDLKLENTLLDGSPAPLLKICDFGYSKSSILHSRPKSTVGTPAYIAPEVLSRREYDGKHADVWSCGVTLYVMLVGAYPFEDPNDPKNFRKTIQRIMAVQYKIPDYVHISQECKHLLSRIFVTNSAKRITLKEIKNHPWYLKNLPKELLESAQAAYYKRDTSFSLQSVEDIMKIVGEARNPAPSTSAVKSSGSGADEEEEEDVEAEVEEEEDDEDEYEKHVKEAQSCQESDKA

MPK6 = MPK6 (UniProt Q39026); assay: split reporter; BiFC in N. benthamiana leaves; VenusN and SCFP3AC fusions; leaves treated with water or 500 mM mannitol for 5 h; confocal microscopy
[3] = target: T3, SRK2G-VenusN (Arabidopsis thaliana) (UniProt P43292); assay: as above
T3 sequence: T2 sequence

[4] = target: T4, SRK2A-VenusN (Arabidopsis thaliana) (UniProt P43291); assay: as above
T4 sequence: T1 sequence

B1: RAF20-nLUC (protein, UniProt Q9SAJ2 1-1248)
chain: MDKARHQQLFQHSMEPGYRNETVPQPFMPDQTGSASANMRPPNSNGSDVKAVHNFSIQTGEEFSLEFMRDRVIPQRSSNPNGAGDMNYNTGYMELRGLIGISHTGSECASDVSRFSTVENGTSDIERTNSSLHEFGNKLNHVQSAPQALLSKDSSVGNLHGYKNTSSSASGSVTAKVKILCSFGGKILPRPGDSKLRYVGGETHIISIRKDISWQELRQKILEIYYQTRVVKYQLPGEDLDALVSVSSEEDLQNMLEEYNEMENRGGSQKLRMFLFSISDMDDALLGVNKNDGDSEFQYVVAVNGMDIGSGKNSTLLGLDSSSANNLAELDVRNTEGINTIAGDVVGVGASQLMVNGFQQTSAQQSESIPPSSSLHYSQSIPLNAAYQLQQSVPPSSALHYPQSITPGSSLQYPQSITPGSSYQYPQSIIPGSASSYGIYPQYYGHVVQHGERERFPLYPDHSSNYSAIGETTSSIPIQGHVSQQGGWAEGYPYPGSTPKSTQALAEEQKVSSDMKIREEVEPENRKTPGNDHQNPPQIDDVEVRNHNQVREMAVATTPPSQDAHLLPPSRDPRQNTTAKPATYRDAVITGQVPLSGIEDQLSTSSSTYAPVHSDSESNLIDLNYPEPEQSSQRVYCSERIPREQLELLNRLSKSDNSLSSQFVTSESPANTAQQDSGKEAVGKSHDEFKTVNDDANHHTHKDVETIFEKVGVSDETLESEPLHKIVNPDDANKNRVVNGADTEIGVSNLSHVNAAMSHVIPEEQASLQGDILIDINDRFPRDFLSEIFSQAISEDTSTVRPYPHDGAAVSMNVQNHDRKNWSYFQQLAEDQFIQRDVVLDQADSRIPSDRKDGGESSRLPYVSPLSRDGISTNLANPQLTLGQDYGGNFSEKDGGGTGSIPPALENEQMKVTESEEFGAMVENLRTPDSEPKDEKTETRHAALPPLGSEFDYSGLQIIKNEDLEELRELGSGTFGTVYHGKWRGSDVAIKRIKKSCFAGRSSEQERLTGEFWGEAEILSKLHHPNVVAFYGVVKDGPGGTLATVTEYMVDGSLRHVLVRKDRHLDRRKRLIIAMDAAFGMEYLHSKNTVHFDLKCDNLLVNLKDPSRPICKVGDFGLSKIKRNTLVSGGVRGTLPWMAPELLNGSSSKVSEKVDVFSFGIVLWEILTGEEPYANMHYGAIIGGIVNNTLRPTIPGFCDDEWRTLMEECWAPNPMARPSFTEIAGRLRVMSSAATSTQSKPSAHRASK
binding [1]: binds
binding [2]: binds

B2: RAF24-nLUC (protein, UniProt O64768 1-1257)
chain: MDQAKGYEHVRYTAPDPRDEGLGSINQRFSHDSSTNVNTYVRPPDYGVSTPARPVLNYSIQTGEEFAFEFMRDRVIMKPQFIPNVYGEHSGMPVSVNLSALGMVHPMSESGPNATVLNIEEKRQSFEHERKPPSRIEDKTYHELVQSAPVISSKNDTGQRRHSLVSSRASDSSLNRAKFLCSFGGKVIPRPRDQKLRYVGGETRIIRISKTISFQELMHKMKEIFPEARTIKYQLPGEDLDALVSVSSDEDLQNMMEECIVFGNGGSEKPRMFLFSSSDIEEAQFVMEHAEGDSEVQYVVAVNGMDLSSRRSSLGLSPPGNNLDELLHGNFDRKIDRAATEPAVASLTPLAGNESLPASQTSQPVTGFSTGNEPFSQPYLGQQLQFPGLGNHQIYTSGHMASIGYIDEKRSAPLHVQPQPHYIPYSVNPETPLESLVPHYPQKPEQGFLREEQIFHVQDPETSSKEAKMRRDDSFQKVNDHPISTVESNLSAKEPKMRRESSTPRVNEYPVSSMPSDLIVPDDLPKEEAPIVTQTSSSTPDPSSSTLSEKSLRKSEDHVENNLSAKEPKMRKEHSTTRVNEYSVSSVSSDSMVPDQALKEEAPISMKISNSTPDPKSLVYPEKSLRTSQEKTGAFDTTNEGMKKNQDNQFCLLGGFSVSGHGTSNNSSSNVSNFDQPVTQQRVFHSERTVRDPTETNRLSKSDDSLASQFVMAQTTSDAFLPISESSETSHEANMESQNVHPTAPVIPAPDSIWTAEGSMSQSEKKNVETNTPEHVSQTETSAKAVPQGHNEKGDIVVDINDRFPREFLADILKTKESLNFPGLGPLHADGAGVSLNIQNNDPKTWSYFRNLAQDEFERKDLSLMDQDHPGFPTSMTNTNGVPIDYSYPPLQSEKVASSQIHPQIHFDGNIKPDVSTITIPDLNTVDTQEDYSQSQIKGAESTDATLNAGVPLIDFMAADSGMRSLQVIKNDDLEELKELGSGTFGTVYHGKWRGTDVAIKRIKRSCFIGRSSEQERLTSEFWHEAEILSKLHHPNVMAFYGVVKDGPGGTLATVTEYMVNGSLRHVLLSNRHLDRRKRLIIAMDAAFGMEYLHSKSIVHFDLKCDNLLVNLKDPARPICKVGDFGLSKIKRNTLVTGGVRGTLPWMAPELLSGSSSKVSEKVDVFSFGIVLWEILTGEEPYANMHYGAIIGGIVNNTLRPTVPNYCDPEWRMLMEQCWAPDPFVRPAFPEIARRLRTMSSSAVHTKPHAVNHQIHK
binding [1]: binds
binding [2]: binds

B3: RAF20-SCFP3AC (protein, UniProt Q9SAJ2 1-1248)
chain: B1 chain
binding (MPK6): no binding
binding [3]: binds
binding [4]: binds

B4: RAF24-SCFP3AC (protein, UniProt O64768 1-1257)
chain: B2 chain
binding (MPK6): no binding
binding [3]: binds
binding [4]: binds

Reference: article PMC7069986
